Experimental data: PubChem BioAssay AID686979 (National Center for Advancing Translational Sciences (NCATS), 2013)
Hit rate of the full screen: of about 420,000 compounds, about 50,000 (12%) were called active. Inconclusive means that the source gave no clear call. Such entries were picked first, then a sample of the others. Calls come from the whole dose curve; as a rule, active = well fitted inhibition curve with a large enough effect; inconclusive = small, poorly fitted or top-dose-only effect; inactive = flat fitted curve, though single readings scatter. No potency is given beside an inconclusive call; the fits are too rough.
% is set by controls: 0 for no effect and ±100 for the full control effect; potency is the fitted concentration of half-maximal effect; tags give direction and shape of the fitted curve.

Assay: qHTS for Inhibitors of human tyrosyl-DNA phosphodiesterase 1 (TDP1): qHTS in cells in presence of CPT; note: nearly all actives have a fitted effect of over 55% in size
Conditions: chicken DT40 Tdp1-/-;hTDP1 cells + 20 nM CPT, ATP luminescence, 48 h; activity change, negative = growth inhibition: at 46.2 µM (top of the series) unless noted
Method in brief: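 Chicken DT40 Tdp1-/- cells complemented with human TDP1, 400 cells/well, exposed to compounds plus 20 nM camptothecin for at least 48 h at 37 C; viability read as ATP content by CellTiter-Glo luminescence.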
In the case of `Cc1ccc(Cl)cc1NC(=O)c1ccc(NC(=O)N2CCSc3ncccc32)cc1`, the Potency is reported as inconclusive [inhibitor, single point].
With `Cc1ccc([N+](=O)[O-])cc1NC(=O)CN(C)CCOc1ccccc1` the Potency was inconclusive [inhibitor, partial curve].
With `CCOc1ccc(NC(=O)CN2CCN(c3ccccc3C)CC2)cc1S(=O)(=O)N1CCCC1` the Potency was inconclusive [inhibitor, single point].
For `COCCn1c(CN2CCN(c3ccccc3)CC2)nc2c1c(=O)n(C)c(=O)n2C`, the Potency was active: 10.3 µM.
In the case of `C[C@@H](C(=O)NC1CCCCC1)N1C(=O)N2CCc3c([nH]c4ccccc34)[C@@]2(C)C1=O`, the Potency is reported as inconclusive [inhibitor, single point].
With `O=C(c1cc([N+](=O)[O-])ccc1N1CCN(S(=O)(=O)c2ccc(Cl)c(Cl)c2)CC1)N1CCOCC1` the Potency was inconclusive [inhibitor, partial curve].
For `O=C(Nc1ccc(Cl)cc1)c1cccc(NC2=NC3CS(=O)(=O)CC3S2)c1` (stereo not drawn), the Potency was “inactive”.
For `COc1ccccc1C1(CC(=O)O)CCOC(C)(C)C1` (stereo not drawn), the Potency was “inactive”.
With `COc1ncc2nc(-c3cc(F)cc(F)c3)c(=O)n(Cc3cccs3)c2n1` the Potency was “inactive”.
With `CCCCCCCn1c2c(c(=N)c3c1CCC3)CCCC2` the Potency was active: 0.411 µM.
With `O=C(NCc1ccccn1)c1ccc(Cl)cc1Cl` the Potency was “inactive”.
For `COc1ccc(CCNc2oc(-c3ccco3)nc2C#N)cc1`, the Potency was inconclusive [inhibitor, partial curve, poor fit].
For `CCOc1ccc(OCCCCOc2ccccc2C(C)=O)cc1`, the Potency was inconclusive [inhibitor, single point].
With `CCOC(=O)c1ccc2c(c1)C1C=CCC1C(C(=O)OCC)N2` (stereo not drawn) the Potency was inconclusive [inhibitor, partial curve].
In the case of `CN(C(=O)c1ccc(NC(=O)Cc2ccc([N+](=O)[O-])cc2)cc1)C1CC1`, the activity change, negative = growth inhibition is reported as inconclusive: -30.5% [inhibitor].
For `CN(C)CCN(C(=O)/C=C/c1cccs1)c1nc2ccc(Br)cc2s1`, the Potency was inconclusive [inhibitor, single point].
With `CCOc1ccc(S(=O)(=O)N2CCN=C2Cc2ccccc2)cc1C` the Potency was inconclusive [inhibitor, single point].
With `CN(C)CCn1cnc2c1c(=O)n(C)c(=O)n2C` the Potency was “inactive”.
For `CC(=O)c1ccc(OC(C)C)c(CSC(=N)N)c1`, the Potency was active: 23.1 µM.
For `Cc1ccc(C(=O)O)cc1N1C(=O)CCCC1=O`, the Potency was “inactive”.
In the case of `O=C(O)c1ccc(CN2C(=O)c3cccc4c([N+](=O)[O-])ccc(c34)C2=O)cc1`, the Potency is reported as active: 14.6 µM.
With `CC(C)[C@H](NC(=O)c1ccccc1)C(=O)OCC(=O)c1ccc2c(c1)NC(=O)CO2` the Potency was active: 4.61 µM.
In the case of `c1ccc(Cn2nnc(CNc3ccccc3)c2-c2c(CNc3ccccc3)nnn2Cc2ccccc2)cc1`, the Potency is reported as inconclusive [inhibitor, single point].
For `COc1cc(NC(=O)c2cc3sccc3n2C)cc(OC)c1`, the Potency was inconclusive [inhibitor, single point].
With `c1coc(-c2nnc3sc(-c4cccs4)nn23)c1` the Potency was “inactive”.
With `COc1ccc(C(=O)CC(C#N)c2ccc3c(c2)OCO3)cc1OC` (stereo not drawn) the Potency was inconclusive [inhibitor, single point].
With `CCc1nc2ccc(C(=O)N3CCN(c4cccc(C(F)(F)F)c4)CC3)cc2nc1CC` the Potency was inconclusive [inhibitor, single point].
In the case of `Cc1cc(C)cc(NS(=O)(=O)c2ccc3oc(=O)ccc3c2)c1`, the Potency is reported as inconclusive [inhibitor, partial curve].
With `CCOCCCN1C(=O)C2C(C(=O)Nc3ccc(OCC)cc3)C3C=CC2(O3)C1C(=O)NC1CCCCC1` (stereo not drawn) the Potency was “inactive”.
In the case of `CC(=O)c1c(C)[nH]c(C(=O)Nc2ccc(Cl)c(S(=O)(=O)N(C)C)c2)c1C`, the Potency is reported as inconclusive [inhibitor, single point].
For `COc1ccc(NS(=O)(=O)c2ccc(NC(=O)C3CCCO3)cc2)cc1` (stereo not drawn), the Potency was inconclusive [inhibitor, partial curve].
In the case of `CC1(Oc2ccc(-n3ccnc3)cc2)CCN(Cc2cccn2-c2nccs2)C1` (stereo not drawn), the Potency is reported as active: 29.1 µM.
With `CCc1ccc([C@@H]2C[C@H]3[C@@H](CN2S(=O)(=O)c2ccc(C)cc2)C(=O)C[C@@H](c2ccc(Cl)cc2)N3S(=O)(=O)c2ccccc2C)cc1` the Potency was inconclusive [inhibitor, single point].
For `CN(C(=O)CSc1nc2ccccc2n1CC(=O)N(C)C1CCCCC1)c1ccccc1`, the Potency was inconclusive [inhibitor, single point].
For `Cc1ccc(C)c(NC(=S)N2CCC(NC(=O)c3ccco3)CC2)c1`, the Potency was “inactive”.
For `O=C(Nc1ccc2c(c1)OCO2)c1ccc(NC2CC2)c([N+](=O)[O-])c1`, the Potency was active: 20.6 µM.
With `CC(C)NC(=O)C1(C)CCN1CCC(=O)c1ccccc1` (stereo not drawn) the Potency was active: 13 µM.
In the case of `CN(C)S(=O)(=O)c1ccc(C(=O)NCc2ccc3[nH]c4c(c3c2)CCCC4)cc1`, the Potency is reported as inconclusive [inhibitor, single point].
With `COc1ccc(S(=O)(=O)N2CCOC2CNC(=O)C(=O)NCc2ccccc2OC)cc1` (stereo not drawn) the Potency was inconclusive [inhibitor, partial curve, poor fit].
In the case of `COc1ccccc1C(c1nnnn1C(C)(C)C)N1CCCc2ccccc21` (stereo not drawn), the Potency is reported as inconclusive [inhibitor, single point].
In the case of `CCOC(=O)[C@]12CCCC=C1N(Cc1ccc3c(c1)OCO3)C(=O)[C@H](CC(=O)N1CCN(C(=O)c3ccco3)CC1)C2`, the Potency is reported as inconclusive [inhibitor, single point].
In the case of `Cc1ccc(C)c(NC(=O)c2cc(S(=O)(=O)NCCc3ccccc3)ccc2F)c1`, the Potency is reported as active: 23.1 µM.
With `CN1CCN(C(=O)c2ccc3c(c2)N(Cc2ccc(Cl)cc2)C(=O)c2ccccc2S3=O)CC1` (stereo not drawn) the Potency was “inactive”.
In the case of `C=CCNC(=S)NNC(=O)CC12CC3CC(CC(C3)C1)C2`, the Potency is reported as “inactive”.
With `Cc1ccc(CSCC(=O)NCc2cccs2)cc1` the Potency was “inactive”.
In the case of `Cc1cccc(NC(=O)CSc2nc3ccccc3nc2N2CCCCC2)c1`, the Potency is reported as active: 29.1 µM.
In the case of `CCOc1cc(N2CCOCC2)c(OCC)cc1NC(=O)COC(=O)c1cc(C)oc1C`, the Potency is reported as inconclusive [inhibitor, single point].
With `Cc1ccccc1OCC(=O)NCCC1=CCCCC1` the Potency was inconclusive [inhibitor, single point].
For `COCc1nc2ccccc2n1Cc1ccccc1C`, the Potency was inconclusive [inhibitor, single point].
For `O=C(Oc1c(CN2CCOCC2)cc(Cl)c2cccnc12)c1ccc(F)cc1`, the Potency was active: 4.61 µM.
For `CCOc1cc(C(=O)N(Cc2ccccc2)c2ccc(C)cc2)ccc1OCC(=O)N1CCOCC1`, the Potency was inconclusive [inhibitor, single point].
For `COc1ccccc1CNC(=O)CSc1nn2c(=O)c(C(C)(C)C)nnc2s1`, the Potency was inconclusive [inhibitor, single point].
In the case of `CCOc1ccc(Nc2nc(N)nc(CSC(=S)N3CCN(c4ccccc4)CC3)n2)cc1`, the Potency is reported as active: 14.6 µM.
For `Cc1noc(/C=C/c2ccccc2F)c1S(=O)(=O)N1CCC(C(=O)Nc2ccc(C#N)cc2)CC1`, the Potency was active: 11.6 µM.
For `COc1cccc(NC(=O)Nc2ccc3nc(N4CCN(C)CC4)cc(C)c3c2)c1`, the Potency was inconclusive [inhibitor, single point].
In the case of `C[C@H](CO)N1C[C@H](C)[C@@H](CN(C)S(=O)(=O)c2ccc(F)cc2)Oc2ccc(NC(=O)NC3CCCCC3)cc2C1=O`, the Potency is reported as “inactive”.
For `CCOC(=O)C1CCCN(C(=O)c2ccc3c(c2)N(Cc2ccc(Cl)cc2)C(=O)c2ccccc2S3=O)C1` (stereo not drawn), the Potency was inconclusive [inhibitor, single point].
In the case of `CN(C)c1ccc(-c2nccc(NCCN3CCOCC3)n2)cc1`, the Potency is reported as inconclusive [inhibitor, single point].
With `Cc1cc(C)c2oc(=O)cc(CN3CCC(C)CC3)c2c1` the Potency was inconclusive [inhibitor, single point].
For `C/C(CC(=O)Nc1ccc(N(C)C)cc1)=N\NC(=O)c1ccc([N+](=O)[O-])cc1`, the Potency was “inactive”.
With `O=C(C1CCN(S(=O)(=O)Cc2ccccc2)CC1)N1CCCc2ccccc21` the activity change, negative = growth inhibition was inconclusive: -36% [inhibitor].
For `O=C(CSc1nc2ccsc2c(=O)n1-c1ccc(Br)cc1)NCc1ccccc1`, the Potency was inconclusive [inhibitor, single point].
In the case of `COc1cccc(NC(=O)Nc2ccccc2SC)c1`, the Potency is reported as inconclusive [inhibitor, single point].
For `COCCCNCCCCOc1ccc(OCc2ccccc2)cc1`, the Potency was inconclusive [inhibitor, single point].
With `CC(=NC1CC1)c1c(-c2ccccc2)[nH]n(-c2nc3ccccc3s2)c1=O` the Potency was inconclusive [inhibitor, single point].
In the case of `O=C(COC(=O)c1cc([N+](=O)[O-])ccc1N1CCCC1)Nc1ccccc1OC(F)F`, the Potency is reported as inconclusive [inhibitor, single point].
For `FC(F)(F)c1cc(-c2ccco2)nc(N2CCN(Cc3ccccc3)CC2)n1`, the Potency was inconclusive [inhibitor, single point].
In the case of `CCCCN(CC)C(=O)C1CCCN(c2ncnc3c2nc2n3CCCCC2)C1` (stereo not drawn), the Potency is reported as inconclusive [inhibitor, single point].
